Source: PubChem BioAssay (NCATS)
The shares of active, inactive and inconclusive entries below differ from those in the screen. No potency is given beside an inconclusive call; the fits are too rough. Active and inactive are the calls of the source. The call rests on the fitted dose curve; in most records, active means well fitted cell-killing curve with a large enough effect; inconclusive means small, poorly fitted or top-dose-only effect; inactive means flat fitted curve, though single readings scatter.

Test: qHTS of pediatric cancer cell lines to identify multiple opportunities for drug repurposing: Confirmatory screen for SK-N-SH cells (AID 1347129);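 further: cells exposed to compound for 48 h before viability read; nearly all actives have a fitted effect of over 60% in size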
Settings: SK-N-SH neuroblastoma cell viability; series mostly up to 46.1 µM; activity change, negative = cytotoxic: at the top concentration
Source text: Drug repurposing or repositioning has been offered as a strategy for drug development in oncology programs. This approach has special potential for childhood cancers and other rare or orphan diseases, where the expected return on new drug development has been a disincentive to pharmaceuticals.
In this project we exploit the poly-pharmacology of drugs to discover new indications via phenotypic screening of a panel of 19 well-characterized cell lines derived from solid tumors seen in children and adolescents. The goal is to identify approved drugs with previously unrecognized anticancer properties that has the potential to reveal new mechanisms and biological processes involved in carcinogenesis or drug resistance. We employed a titration-based paradigm (quantitative high-throughput screening or qHTS), where all compounds were tested at multiple concentrations for their effect on cell viability. Concentration-response curves (CRCs) were derived directly from the primary screen, and both potency and efficacy values were used to identify compounds with robust bioactivity profiles. We screened the NIH Chemical Genomics Center (NCGC) Pharmaceutical Collection (NPC) and Mechanism Interrogation Plate (MIPE) small molecule collections of approved and investigational compounds against these cell lines; and measured metabolically active cells after 48 hours of compound treatment as a proxy for cell viability.
Assay Submitter: Nathalia J. Martinez, National Center for Advancing Translational Sciences, National Institutes of Health, Rockville, MD, USA; email: natalia.martinez@nih.gov
[1] Shen, M et al. Quantitative high-throughput phenotypic screening of pediatric cancer cell lines identifies multiple opportunities for drug repurposing. Oncotarget 2017 Dec 19;9(4):4758-4772. PMID 29435139.
The cells were obtained from University of North Carolina (UNC), Pediatric Preclinical Testing Program (PPT), and Coriell Institute (CI).
qHTS cell viability assay:
Cells were assayed in growth media at a density of 500-1,000 cells/well. Five microliters of cells were dispensed into 1,536-well, white, solid-bottom, TC-treated plates (Greiner Bio One) using a multidrop dispenser and incubated at 37 degrees C, 5% CO2, under a humidified atmosphere for 5 hours. Twenty-three nanoliters of compounds and controls (neutral control DMSO or positive control bortezomib at final concentration of 2.3 µM) were subsequently transferred by Kalypsys pintool. For primary screens, the MIPE collection was tested at 11-point dilutions (final concentrations range from 0.78 nM to 46 µM) and the NPC collection at 8-point dilutions (final concentrations range from 0.59 nM to 46 µM). Compounds tested in follow-up screens were assayed at 11-point dilutions. Cells were incubated for 48 hours, followed by addition of 3 µL of CellTiter-Glo (Promega). After a 15 min incubation at room temperature, samples were analyzed for luminescence intensity using a ViewLux High-throughput CCD imager equipped with clear filters.
Potency means the concentration at half of the fitted maximal effect; tags describe the fitted curve by direction and shape.

Question: Which Potency does the source give for `COc1ncc(-c2ccc3nccc(-c4ccnnc4)c3c2)cc1NS(=O)(=O)c1ccc(F)cc1F` here?
Answer: active: 0.187 µM

Question: With `COc1ccc(-c2coc3cc(O)cc(O)c3c2=O)cc1` as the compound, how does the Potency read?
Answer: inconclusive [cytotoxic, partial curve, poor fit]

Question: With `COc1cccc(-c2cc(=O)c3ccccc3o2)c1N` as the compound, how does the Potency read?
Answer: inconclusive [cytotoxic, single point]

Question: With `O=C(Nc1ccc([N+](=O)[O-])cc1Cl)c1cc(Cl)ccc1O` as the compound, how does the Potency read?
Answer: active: 3.23 µM

Question: Which Potency does the source give for `CNCC[C@H](Oc1cccc2ccccc12)c1cccs1` here?
Answer: inconclusive [cytotoxic, single point]

Question: Which Potency does the source give for `COC(=O)Nc1nc2ccc(C(=O)C3CC3)cc2[nH]1` here?
Answer: inconclusive [cytotoxic, full curve]

Question: With `C=C1C(=CC=C2CCC[C@]3(C)[C@@H]([C@H](C)CCCC(C)(C)O)CC[C@@H]23)C[C@@H](O)C[C@@H]1O` as the compound, how does the “activity change, negative = cytotoxic” value read?
Answer: inactive: 0.243%

Question: With `Oc1c(Br)cc(Br)c2cccnc12` as the compound, how does the Potency read?
Answer: inconclusive [cytotoxic, single point]

Question: With `CC1=C[C@@H]2[C@@H]([C@@H](O)C[C@@]3(C)[C@H]2C[C@@H](C)[C@]3(O)C(=O)CO)[C@@]2(C)Cc3cnn(-c4ccccc4)c3C=C12` as the compound, how does the Potency read?
Answer: inconclusive [cytotoxic, single point]

Question: Which “activity change, negative = cytotoxic” value does the source give for `CCN(CC)C(=S)SSC(=S)N(CC)CC` here?
Answer: inactive: -29%

Question: Which Potency does the source give for `CO[C@H]1C(=O)[C@]2(C)[C@@H](OC)C[C@H]3OC[C@@]3(OC(C)=O)[C@H]2[C@H](OC(=O)c2ccccc2)[C@]2(O)C[C@H](OC(=O)[C@H](O)[C@@H](NC(=O)OC(C)(C)C)c3ccccc3)C(C)=C1C2(C)C` here?
Answer: inconclusive [cytotoxic, full curve]

Question: With `C=C(c1ccc(C(=O)O)cc1)c1cc2c(cc1C)C(C)(C)CCC2(C)C` as the compound, how does the “activity change, negative = cytotoxic” value read?
Answer: inactive: -4.43%

Question: For `COc1ccc(-c2oc3cc(OC)ccc3c2C(=O)c2ccc(C#N)cc2)cc1`, which “activity change, negative = cytotoxic” value is on record?
Answer: inactive: 8.22%

Question: With `CC1(C)CCC2=C(O1)c1ccccc1C(=O)C2=O` as the compound, how does the Potency read?
Answer: inconclusive [cytotoxic, single point]

Question: Which Potency does the source give for `COCCn1c2c([n+](Cc3cnccn3)c1C)C(=O)c1ccccc1C2=O` here?
Answer: active: 0.235 µM

Question: Which Potency does the source give for `CO[C@H]1C=CC=C(C)C(=O)NC2=CC(=O)C(NCCN(C)C)=C(C[C@@H](C)C[C@H](OC)[C@@H](O)[C@@H](C)C=C(C)[C@@H]1OC(N)=O)C2=O` here?
Answer: inconclusive [cytotoxic, single point]

Question: With `OC(CN1CCC(Cc2ccc(F)cc2)CC1)c1ccc(Cl)cc1` (stereo not drawn) as the compound, how does the Potency read?
Answer: inconclusive [cytotoxic, single point]

Question: For `O=c1cc(-c2ccc(O)cc2)oc2cc(O)cc(O)c12`, which “activity change, negative = cytotoxic” value is on record?
Answer: inactive: -1.55%

Question: With `CNCc1ccc(-c2[nH]c3cc(F)cc4c3c2CCNC4=O)cc1` as the compound, how does the Potency read?
Answer: inconclusive [cytotoxic, partial curve]

Question: Which Potency does the source give for `CCc1ccc(OCc2ccccc2C(=O)Nc2ccc3nc(C)cc(N)c3c2)cc1` here?
Answer: active: 8.33 µM

Question: Which “activity change, negative = cytotoxic” value does the source give for `CC(C)Cc1ccc(C(C)C(=O)O)cc1` (stereo not drawn) here?
Answer: inactive: -7.93%

Question: With `CCC1(c2ccccc2)C(=O)NCNC1=O` as the compound, how does the “activity change, negative = cytotoxic” value read?
Answer: inactive: 2.83%

Question: Which Potency does the source give for `CCCCc1oc2ccccc2c1C(=O)c1cc(I)c(OCCN(CC)CC)c(I)c1` here?
Answer: active: 56.2 µM

Question: For `CC(=NNC(=S)N1CCC1)c1ccccn1`, which Potency is on record?
Answer: inconclusive [cytotoxic, single point]

Question: Which Potency does the source give for `CCCCc1ccc2nc(NC(=O)OC)[nH]c2c1` here?
Answer: inconclusive [cytotoxic, full curve]

Question: Which Potency does the source give for `CC(C)C[C@@H](C(=O)N[C@H](C(=O)OC1CCCC1)c1ccccc1)[C@H](O)C(=O)NO` here?
Answer: inconclusive [cytotoxic, partial curve]

Question: Which Potency does the source give for `CC(C)(C(=O)NCC(F)(F)C(F)(F)F)C(=O)N[C@@H]1C(=O)Nc2ccccc2-c2ccccc21` here?
Answer: inconclusive [cytotoxic, full curve]

Question: For `O=C(c1ccc(F)c(F)c1Nc1ccc(I)cc1F)N1CC(O)([C@H]2CCCCN2)C1`, which Potency is on record?
Answer: inconclusive [cytotoxic, full curve]

Question: For `CC(=O)Nc1ccc([C@H](C)C(=O)Nc2ncc(C(C)C)s2)cc1`, which Potency is on record?
Answer: active: 6.62 µM

Question: With `CN(C)c1ccc2nc3ccc(=[N+](C)C)cc-3sc2c1` as the compound, how does the Potency read?
Answer: active: 4.18 µM

Question: With `Nc1ccccc1NC(=O)c1ccc(CNC(=O)OCc2cccnc2)cc1` as the compound, how does the Potency read?
Answer: inconclusive [cytotoxic, full curve]

Question: With `Clc1ccc(C(Cn2ccnc2)OCc2ccc(Sc3ccccc3)cc2)c(Cl)c1` (stereo not drawn) as the compound, how does the Potency read?
Answer: inconclusive [cytotoxic, single point]

Question: With `N=C1N=C(N)c2cc3ccccc3cc21` as the compound, how does the Potency read?
Answer: active: 38.2 µM
